85 molecules from ChEMBL document CHEMBL1201862, “PubChem BioAssay data set” (2004) can be followed below.

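Method: 48-hour compound exposure of cells in 96-well plates, five concentrations, linear interpolation of endpoints. Abbreviation: GI50, concentration required for 50% inhibition of growth.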 Activity calls are given as the source filed them. Cut-off read from the data, not from the text of the source: active = GI50 up to about 1.1 µM and inactive = higher.

The test system of the assay is NCI-H322M. The experiment in a line: NCI anticancer screen, dose series, 48 h.
Consider `CCCCS(=O)(=O)CCC(N)C(=O)O` (stereo not given), for which the GI50 was inactive: > 100 µM.

Consider `CC(C)c1nccn1Cc1ccc(Cl)cc1Cl`, for which the GI50 is inactive: 49.1 µM.

As for `Nc1ccc(S(=O)(=O)c2ccc(NC(=O)c3cccnc3)cc2)cc1`, the GI50 was inactive: > 100 µM.

In the case of `O=C1c2ccccc2C(=O)N1CCCSc1ccccc1`, the GI50 is inactive: > 100 µM.

As for `COc1ccc(C(=O)NCCN(C)C)c2nc3ccccc3cc12`, the GI50 is inactive: 1.63 µM.

With `N#Cc1c2c(c(Nc3ccc(F)cc3)n3c1nc1ccccc13)CCCC2`, the GI50 is inactive: > 100 µM.

`COc1ccc(C[C@H]2COC(=O)[C@@H]2Cc2ccc(O)cc2)cc1OC`: the GI50 is inactive: > 100 µM.

For `COC1OC(CO)C(O)C(OC(=O)c2cc(O)c(O)c(O)c2)C1OC(=O)c1cc(O)c(O)c(O)c1` (stereo not given), the GI50 is inactive: > 100 µM.

For `Cc1cc(Cc2c(F)c(F)c(C(c3cc(C)no3)c3c(F)c(F)c(F)c(F)c3F)c(F)c2F)on1` (stereo not given), the GI50 was inactive: > 100 µM.

Turning to `CCOC(OCC)[C@@H]1C[C@@H]2N(O[C@H](OC3CCCC3(c3ccccc3)c3ccccc3)[C@H](OC(C)=O)[C@@]2(CC)Cc2ccc(OC)c(OC)c2)O1` (stereo not given in full), the GI50 was inactive: > 100 µM.

On to `O=C1CC(CC(O)C(O)CO)CC(=O)N1` (stereo not given), for which the GI50 is inactive: > 100 µM.

As to `CCOC(=O)NC/C=C/COC1CCCCO1` (stereo not given), the GI50 is inactive: > 100 µM.

In the case of `O=C1/C(=C/c2ccc(Cl)cc2)CSc2ccccc21`, the GI50 is inactive: 73.6 µM.

On to `O=C1Nc2ccccc2C(=O)/C1=C/NC(=S)NCCc1ccccc1`, for which the GI50 is inactive: > 100 µM.

Regarding `O=C(NCCCOC(=O)CCCCCCCCC(=O)OCCCNC(=O)NC(=O)c1c[nH]c(=O)[nH]c1=O)NC(=O)c1c[nH]c(=O)[nH]c1=O`, the GI50 is inactive: > 100 µM.

As to `O=c1c2c(no[n+]2[O-])c2ccccc2n1-c1ccccc1`, the GI50 is inactive: 15.9 µM.

Turning to `CN(C)CCNc1ccc(NCC[N+](C)(C)Cc2ccc([N+](=O)[O-])cc2)c2c1C(=O)c1c(O)ccc(O)c1C2=O`, the GI50 is inactive: 46 µM.

On to `COc1ccc(/C=C(\C#N)c2nc3ccccc3c(=O)[nH]2)cc1`, for which the GI50 was inactive: 42.7 µM.

As for `COc1ccc(C#Cn2nnc3ccccc32)cc1`, the GI50 is inactive: 46.9 µM.

Consider `Brc1ccc2c(-c3nc(-c4c[nH]c5ccc(Br)cc45)cs3)c[nH]c2c1`, for which the GI50 was inactive: 4.13 µM.

For `O=C(O)Cc1cc(=O)oc2cc(O)c(Cl)cc12`, the GI50 is inactive: > 100 µM.

`CCOC(OCC)C(CC)[Se]c1ccccc1[N+](=O)[O-]` (stereo not given): the GI50 was inactive: 3.24 µM.

In the case of `O=C1c2ccccc2CCCCCCCCCCC12OCCCO2`, the GI50 was inactive: 63 µM.

As for `COC(=O)C(=O)C(C(=O)C(=O)Nc1ccc(Cl)cc1C)c1nc2ccc(C(=O)c3ccccc3)cc2nc1O` (stereo not given), the GI50 is inactive: > 100 µM.

For `CC(=O)O[C@H]1CC[C@H]2[C@@H]3CC[C@H]4Nc5c(cnn5S(C)(=O)=O)C[C@]4(C)[C@H]3CC[C@]12C`, the GI50 was inactive: 73.6 µM.

`CN(c1ccccc1Cl)S(=O)(=O)c1ccccc1`: the GI50 was inactive: > 100 µM.

For the molecule `COc1cc(C2c3cc4c(cc3OC(N3CCNCC3)C2C)OCO4)cc(OC)c1OC` (stereo not given), the GI50 is active: 0.989 µM.

Take `CCCCSc1n/c(=C\c2ccc(N(C)C)cc2)c2nnnn12`: the GI50 was inactive: > 100 µM.

With `Cc1ccc2nnc(NS(=O)(=O)c3cc(C)c(Cl)cc3S)n2n1`, the GI50 was inactive: > 100 µM.

On to `COc1ccc(C(OC(=O)[C@H](O[Si](C)(C)C(C)(C)C)[C@@H](NC(=O)c2ccccc2)c2ccccc2)c2ccc(OC)cc2)cc1`, for which the GI50 is inactive: > 100 µM.

For `CN(NC(=O)c1ccc(Cl)cc1)C1=NCCCCN1`, the GI50 is inactive: > 100 µM.

Turning to `COc1ccc(CNc2nc3ccc(C(F)(F)F)cc3nc2-c2ccccc2)cc1OC`, the GI50 is inactive: > 100 µM.

`O=c1cccccc1NCCOCCNc1cccccc1=O`: the GI50 was inactive: > 100 µM.

As for `Cc1ccc(S(=O)(=O)N2CC2CCCCC=O)cc1` (stereo not given), the GI50 was inactive: > 100 µM.

Consider `Clc1ccc(Nc2nc(Cl)c3nc[nH]c3n2)cc1Cl`, for which the GI50 was inactive: 33.7 µM.

As to `COc1ccc(C(=O)C(CC2C(=O)CC(C)(C)C(C(=O)C(=O)Nc3c(C)cccc3C)C2=O)c2ccc(OC)cc2)cc1` (stereo not given), the GI50 is inactive: > 100 µM.

Turning to `Cc1cc(C)nc(NS(=O)(=O)c2ccc(Nc3c4ccc(Cl)cc4nc4c(C(=O)NCCN(C)C)cccc34)cc2)n1`, the GI50 was inactive: > 100 µM.

`CC(C)Cc1ccc(C(C)C(=O)N2CCN(/C=C/c3ccccc3)CC2)cc1` (stereo not given): the GI50 is inactive: 17.3 µM.

In the case of `NC(CCCNc1ccc(O)cc1)C(=O)O` (stereo not given), the GI50 was inactive: > 100 µM.

With `O=[N+]([O-])c1cc([N+](=O)[O-])c(C(Cl)C(Cl)c2ccccc2)cc1C(Cl)C(Cl)c1ccccc1` (stereo not given), the GI50 was inactive: 5.22 µM.

Turning to `CC(C)(C)OC(=O)C1C(=O)NC(=O)CC1C(COCc1ccccc1)OCc1ccccc1` (stereo not given), the GI50 is inactive: 36.1 µM.

As for `CC1CN1P1(N2CC2C)=NP(N2CC2C)(N2CC2C)=NP(N2CC2C)(N2CC2C)=N1` (stereo not given), the GI50 was inactive: > 50 µM.

On to `COc1ccc2c(c1)OCCCN(C)OC2c1ccccc1` (stereo not given), for which the GI50 is inactive: > 100 µM.

For `COC1C=C(Nc2cccc(Cl)c2)C(=O)C1` (stereo not given), the GI50 was inactive: 39 µM.

For `COc1ccc(OC)c(NC(=O)C2=C(C)NC(C)=C(C(=O)Nc3cc(OC)ccc3OC)C2c2ccco2)c1`, the GI50 was inactive: > 100 µM.

As to `CCC(=O)Nc1ccc(/N=C/c2cccc(Oc3ccccc3)c2)cc1`, the GI50 is inactive: > 100 µM.

In the case of `COCOC1/C=C/CCCC#C[C@H](C)C(=O)CC1` (stereo not given in full), the GI50 is inactive: 14.9 µM.

For the molecule `CC(C)(C)c1cc(S(=O)(=O)O)c2oc(-c3ccccc3)cc(=O)c2c1`, the GI50 was inactive: > 100 µM.

As to `C[C@@]12C[C@@H](c3ccccc3O1)N1Cc3ccccc3CSC1=N2`, the GI50 was inactive: > 100 µM.

For `CC1(C)c2ccccc2C(O)C12CCC(=O)CC2` (stereo not given), the GI50 is inactive: 85.7 µM.

`CC1=C2[C@H](c3ccccc3)C3C=CC2(c2ccccc23)N(C(=O)C(c2ccccc2)c2ccccc2)C1=O` (stereo not given in full): the GI50 is inactive: > 100 µM.

With `O=C(CC1(O)C(=O)Nc2c(Cl)cc(Cl)cc21)c1ccc(F)cc1` (stereo not given), the GI50 was inactive: 75 µM.

`COC(=O)C#CC(N)=O`: the GI50 is inactive: > 100 µM.

As for `Cc1cc2nc(N3C(=O)/C(=C/c4ccccc4S)N=C3c3ccccc3)sc2cc1C`, the GI50 was inactive: 53.6 µM.

Consider `CCCCn1c(-c2ccccc2)cs/c1=N\N=C1C=C(C(C)(C)C)C(=O)C(C(C)(C)C)=C1`, for which the GI50 is inactive: > 100 µM.

Regarding `CC(=N\N=C\c1ccccn1)/C(C)=N/N=C/c1ccccn1`, the GI50 is inactive: > 100 µM.

Turning to `O=C1/C(=C\c2ccco2)Oc2ccccc21`, the GI50 was inactive: > 100 µM.

With `COC(=O)c1nc(NN)cc(O)c1CCCCCc1c(O)nc(NN)nc1C(=O)OC`, the GI50 is inactive: > 100 µM.

`O=[N+]([O-])c1ccc(C(=S)Nc2ccccc2)o1`: the GI50 was inactive: 5.28 µM.

Regarding `CC(C)OC(=O)c1cc(NC(=O)C(C)(C)C)c(F)cc1Cl`, the GI50 was inactive: > 100 µM.

Regarding `CCOC(=O)C(=O)C(=O)NN(C)C1=NCCN1`, the GI50 is inactive: > 100 µM.

`Cc1cccc(NC(=S)NNC(=O)c2cc(-c3ccccc3)nc3ccccc23)c1`: the GI50 was inactive: 38.7 µM.

Regarding `CCOC(=O)c1nc2ccc(C(F)(F)F)cc2nc1Oc1cc(OC)c(OC)c(OC)c1`, the GI50 was inactive: 72.6 µM.

Consider `COc1ccc(OC)c(NC(=O)CCC/C(CC(=O)c2ccc(O)c(OC)c2)=N\Nc2nnc(C)n2N)c1`, for which the GI50 was inactive: > 100 µM.

For the molecule `COc1ccc2nc3c(c(NCCCN(C)C)c2c1)CCCC3`, the GI50 was inactive: 14.3 µM.

For `Cc1nc(/C(=N\n2cnnc2)Nc2ccc(Br)cc2)no1`, the GI50 is inactive: > 100 µM.

For the molecule `CCC/C(Cl)=N\OC(=O)Nc1ccc(F)cc1`, the GI50 was inactive: > 100 µM.

Take `CC(C)(C)C(=O)OCC1CCC(n2cnc3c(=O)[nH]c(N)nc32)O1` (stereo not given): the GI50 was inactive: > 100 µM.

For `COc1c(-c2nc3ccc(N4CCN(C)CC4)cc3[nH]2)cc(OC)c2[nH]c(COC(C)=O)nc12`, the GI50 is inactive: 39.3 µM.

For `CC(=O)OCC1OC(n2c(=O)n(-c3ccccc3)c(=O)c3ccccc32)C(OC(C)=O)C(OC(C)=O)C1OC(C)=O` (stereo not given), the GI50 was inactive: > 100 µM.

In the case of `CC1S(=O)(=O)OCCOS1(=O)=O`, the GI50 was inactive: > 100 µM.

Consider `Cc1ccc(C2SCC(=O)N2NC(=O)c2ccncc2)s1` (stereo not given), for which the GI50 was inactive: > 100 µM.

Turning to `O=C(CBr)c1ccc2cc(Br)c3ccccc3c2c1`, the GI50 is inactive: 23.3 µM.

Turning to `O=C(CCc1ccccc1)n1cccc1CO`, the GI50 was inactive: > 100 µM.

`COc1ccc(C2C(C#N)=C(O)NC(O)=C2C#N)cc1OC`: the GI50 is inactive: > 100 µM.

Consider `O=C(Nc1ccc([N+](=O)[O-])cc1C(=O)O)c1ccc([N+](=O)[O-])cc1`, for which the GI50 is inactive: 32.6 µM.

In the case of `COc1ccc(/N=N/C(=N\c2ccc(F)cc2)c2ccc(N(CCC#N)CCC#N)cc2)cc1`, the GI50 is inactive: 52.8 µM.

Consider `CC#N.O[C@@H]1CCCC[C@H]1O.O[C@@H]1CCCC[C@H]1O.[TeH2]`, for which the GI50 was inactive: > 100 µM.

In the case of `OC1CC2CCC(C1)N2CCCN1c2ccccc2Sc2ccc(Cl)cc21` (stereo not given), the GI50 is inactive: 2.78 µM.

Take `CCc1c(Cc2cc(C)cc(C)c2)n2c(nc1=O)SCC2CBr` (stereo not given): the GI50 is inactive: 38.3 µM.

`O=C(NC1CCN(Cc2ccccc2)CC1)c1ccccc1I`: the GI50 is inactive: 39.5 µM.

Turning to `O=C(c1ccco1)N1CCCN(C(=O)c2ccco2)C1=S`, the GI50 is inactive: > 100 µM.

For the molecule `C/C(=C\c1ccccc1)C(=O)CCN1CCOCC1`, the GI50 was inactive: > 100 µM.

As to `COc1cc(CC2CCc3nc(N)nc(N)c3C2)cc(OC)c1OC` (stereo not given), the GI50 was active: 0.537 µM.

In the case of `COc1ccc(-c2cc(O)c3cccnc3n2)cc1`, the GI50 was inactive: 35.2 µM.
